Measurements taken from paper PMC5431898.
These are yes or no findings as the source states them, for the method shown. Binding seen in cells or lysates may run through a third protein. Some entries that bind do so weakly or less than the wild type. Tags and fused reporters may be left off the sequences shown.

What was measured:
[1] = molecular target: T1, HA-GI^N (GI N-terminal polypeptide, aa 1-858) (Arabidopsis) (UniProt Q9SQI2); assay: co-IP; HA-tagged GI FL, GI^N or GI^C co-infiltrated with GFP-tagged ZTL WT or ZTL^C82A into N. benthamiana leaves; IP with HA antibody (3F10), blots with anti-HA and anti-GFP
T1 sequence: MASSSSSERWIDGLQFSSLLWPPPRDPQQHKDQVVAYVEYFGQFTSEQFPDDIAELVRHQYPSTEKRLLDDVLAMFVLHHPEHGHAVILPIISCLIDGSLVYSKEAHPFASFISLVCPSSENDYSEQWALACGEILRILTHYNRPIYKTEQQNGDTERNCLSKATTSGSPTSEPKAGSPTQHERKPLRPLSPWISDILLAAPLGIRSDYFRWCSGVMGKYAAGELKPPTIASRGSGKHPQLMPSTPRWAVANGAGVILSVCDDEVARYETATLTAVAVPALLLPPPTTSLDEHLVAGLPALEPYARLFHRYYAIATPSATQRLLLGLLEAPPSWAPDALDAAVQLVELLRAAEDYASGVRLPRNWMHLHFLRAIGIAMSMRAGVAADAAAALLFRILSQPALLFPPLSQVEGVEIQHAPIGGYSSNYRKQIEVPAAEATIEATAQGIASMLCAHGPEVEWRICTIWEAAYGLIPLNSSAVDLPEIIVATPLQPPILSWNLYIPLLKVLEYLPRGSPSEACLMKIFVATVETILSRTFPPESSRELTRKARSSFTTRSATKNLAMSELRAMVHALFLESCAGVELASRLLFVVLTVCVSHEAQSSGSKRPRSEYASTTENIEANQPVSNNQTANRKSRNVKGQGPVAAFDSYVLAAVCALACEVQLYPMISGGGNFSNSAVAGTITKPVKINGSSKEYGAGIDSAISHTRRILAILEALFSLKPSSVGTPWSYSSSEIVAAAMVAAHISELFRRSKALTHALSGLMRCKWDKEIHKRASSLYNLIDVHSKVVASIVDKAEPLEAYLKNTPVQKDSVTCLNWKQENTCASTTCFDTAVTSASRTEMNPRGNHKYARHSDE

[2] = molecular target: T2, HA-tagged GI full length (FL) (Arabidopsis) (UniProt Q9SQI2); assay: as above
T2 sequence: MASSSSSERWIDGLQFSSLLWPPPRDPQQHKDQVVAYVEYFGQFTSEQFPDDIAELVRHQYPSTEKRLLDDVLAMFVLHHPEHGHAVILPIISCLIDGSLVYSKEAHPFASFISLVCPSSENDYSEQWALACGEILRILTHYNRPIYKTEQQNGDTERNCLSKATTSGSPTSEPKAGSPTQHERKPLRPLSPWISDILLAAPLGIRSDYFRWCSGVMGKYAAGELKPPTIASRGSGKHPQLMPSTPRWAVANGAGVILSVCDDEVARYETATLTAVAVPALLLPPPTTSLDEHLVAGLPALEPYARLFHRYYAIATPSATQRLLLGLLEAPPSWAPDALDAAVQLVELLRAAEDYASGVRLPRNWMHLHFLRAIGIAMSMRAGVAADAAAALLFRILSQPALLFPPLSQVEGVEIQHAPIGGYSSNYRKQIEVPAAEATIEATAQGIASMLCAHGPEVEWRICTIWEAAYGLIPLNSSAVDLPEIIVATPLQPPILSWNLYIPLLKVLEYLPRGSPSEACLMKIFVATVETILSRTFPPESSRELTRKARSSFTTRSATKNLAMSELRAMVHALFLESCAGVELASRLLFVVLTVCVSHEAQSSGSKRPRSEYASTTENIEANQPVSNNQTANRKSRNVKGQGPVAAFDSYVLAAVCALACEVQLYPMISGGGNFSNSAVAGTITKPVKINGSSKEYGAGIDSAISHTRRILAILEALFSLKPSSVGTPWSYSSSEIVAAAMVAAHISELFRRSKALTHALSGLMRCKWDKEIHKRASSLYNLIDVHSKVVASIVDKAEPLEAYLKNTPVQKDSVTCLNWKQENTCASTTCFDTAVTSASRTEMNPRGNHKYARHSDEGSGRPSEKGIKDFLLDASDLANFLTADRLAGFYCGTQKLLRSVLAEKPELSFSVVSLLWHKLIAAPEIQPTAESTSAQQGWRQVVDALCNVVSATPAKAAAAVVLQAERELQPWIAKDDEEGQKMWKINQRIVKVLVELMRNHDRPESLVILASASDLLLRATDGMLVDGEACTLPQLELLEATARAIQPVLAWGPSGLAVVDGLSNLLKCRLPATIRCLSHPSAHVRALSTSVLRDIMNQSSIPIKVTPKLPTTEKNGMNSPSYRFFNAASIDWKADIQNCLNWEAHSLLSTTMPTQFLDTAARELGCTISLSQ

B1: GFP-tagged ZTL^C82A (protein, UniProt Q94BT6 1-609)
chain: MEWDSGSDLSADDASSLADDEEGGLFPGGGPIPYPVGNLLHTAPCGFVVTDAVEPDQPIIYVNTVFEMVTGYRAEEVLGGNARFLQCRGPFAKRRHPLVDSMVVSEIRKCIDEGIEFQGELLNFRKDGSPLMNRLRLTPIYGDDDTITHIIGIQFFIETDIDLGPVLGSSTKEKSIDGIYSALAAGERNVSRGMCGLFQLSDEVVSMKILSRLTPRDVASVSSVCRRLYVLTKNEDLWRRVCQNAWGSETTRVLETVPGAKRLGWGRLARELTTLEAAAWRKLSVGGSVEPSRCNFSACAVGNRVVLFGGEGVNMQPMNDTFVLDLNSDYPEWQHVKVSSPPPGRWGHTLTCVNGSNLVVFGGCGQQGLLNDVFVLNLDAKPPTWREISGLAPPLPRSWHSSCTLDGTKLIVSGGCADSGVLLSDTFLLDLSIEKPVWREIPAAWTPPSRLGHTLSVYGGRKILMFGGLAKSGPLKFRSSDVFTMDLSEEEPCWRCVTGSGMPGAGNPGGVAPPPRLDHVAVNLPGGRILIFGGSVAGLHSASQLYLLDPTEDKPTWRILNIPGRPPRFAWGHGTCVVGGTRAIVLGGQTGEEWMLSELHELSLASYLT
binding [1]: binds weakly
binding [2]: binds weakly
